Reference: the supplement of paper PMC3334620
In all, about 33,000 sequences were measured (“E-score (-0.5 to 0.5)”: median about -0.041, highest 2% from about 0.37 on). Some of the results follow.

Target: T1, Ecm22 (UniProt Q05958)
T1 sequence: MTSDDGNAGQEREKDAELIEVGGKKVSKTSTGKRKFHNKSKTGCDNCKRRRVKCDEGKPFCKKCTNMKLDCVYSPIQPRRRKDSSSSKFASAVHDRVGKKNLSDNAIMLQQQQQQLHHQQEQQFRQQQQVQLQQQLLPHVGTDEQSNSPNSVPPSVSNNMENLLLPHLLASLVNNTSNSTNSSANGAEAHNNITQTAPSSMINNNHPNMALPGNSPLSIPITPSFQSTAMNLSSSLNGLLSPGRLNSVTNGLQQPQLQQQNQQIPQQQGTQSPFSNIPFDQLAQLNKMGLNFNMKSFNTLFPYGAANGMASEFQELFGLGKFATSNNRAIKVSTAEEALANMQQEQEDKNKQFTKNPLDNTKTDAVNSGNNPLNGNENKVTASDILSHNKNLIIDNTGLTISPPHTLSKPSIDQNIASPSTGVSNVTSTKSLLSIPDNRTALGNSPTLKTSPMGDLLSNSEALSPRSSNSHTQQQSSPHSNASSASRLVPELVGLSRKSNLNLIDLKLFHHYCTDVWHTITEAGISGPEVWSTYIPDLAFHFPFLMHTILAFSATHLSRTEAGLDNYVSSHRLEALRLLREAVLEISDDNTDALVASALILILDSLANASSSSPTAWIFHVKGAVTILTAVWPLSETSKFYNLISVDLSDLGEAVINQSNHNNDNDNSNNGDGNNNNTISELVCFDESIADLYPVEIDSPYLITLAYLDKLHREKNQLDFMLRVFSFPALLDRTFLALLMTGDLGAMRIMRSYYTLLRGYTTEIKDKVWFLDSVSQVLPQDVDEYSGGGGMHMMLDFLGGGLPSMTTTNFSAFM
Assay: PBM E-score (8-mer binding enrichment) (E-score (-0.5 to 0.5)); higher = stronger / more preferred TF binding; most listed sequences are background and not binding sites
Settings: protein concentration: 200 nM; construct: GST-full length
Method in brief: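 E-scores (a modified Wilcoxon-Mann-Whitney statistic) were assigned by the Universal PBM Analysis Suite to every ungapped eight-base word pooled with its reverse complement. The input came from universal all-10-mer Agilent arrays made double-stranded by primer extension and probed with GST-tagged yeast transcription factors at about 100-200 nM. Fluorescent anti-GST detected bound protein, and masliner normalised the scans.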

Sequence	PBM E-score
GCGAAAAC	0.107
GCGGCGAA	0.0736
ATTGTAGA	0.0824
TAGTAGAA	0.137
GGGCTTAA	-0.115
AGTTATTC	0.0906
GGGGTACC	-0.193
CTGGGGAC	-0.338
ACTTGGTA	0.065
ATACAGTG	0.0609
CCATACGC	0.218
AGTGGTTA	0.0717
AGGGTAGG	-0.351
GTCGTGCA	0.0222
AAAGACTG	-0.0334
AAGCCTTA	-0.0685
ACGGAGCA	-0.0244
ACTTTACT	-0.241
CCTCCACC	-0.178
CAACTGGC	-0.152
GCTGACCC	-0.254
GAGATCGA	-0.0238
ACGATCAA	0.263
TGCGCGAA	0.233

Sequence	PBM E-score
TCCATCGA	-0.0751
AAATCGCG	0.0694
GGTAGAGA	-0.0671
CAATACCA	0.00083
TCTACTAA	0.00879
AACCTCAA	-0.205
CATATGCG	0.243
GGCTCTTA	0.0372
CGTATTTC	0.33
GTCCGGTA	0.0584
ATTTACCG	0.182
TCGGAAGA	0.085
ATGGGGTA	-0.0408
GATTCGAC	-0.00995
ATGGATCC	-0.0619
GGGTTGTA	-0.0732
GTACCAAA	0.138
CGAGGACG	0.229
CACTTTTA	-0.0979
CGCCTCAA	-0.1
AATGCGTG	-0.176
AATCCGGA	-0.0546
CGTGTGTA	0.00761
GTTAGACA	-0.137

Sequence	PBM E-score
GTCGAGTA	0.107
AACGCGAA	0.238
ACGCCGCC	-0.148
AGTGAGTA	0.0432
CGGTGACG	0.0711
GCGCGCAC	0.0127
CTCATCTC	-0.0715
ATAACTAT	0.051
GGCATGAC	-0.121
TACTAATA	0.0669
AAGGTCTA	0.0174
ATTGAAGC	-0.128
CCAACACA	0.0271
TATTTGAA	-0.204
AATCGCAT	0.154
CTTAGACA	-0.123
ACTCATAC	0.291
CCAGCGGC	-0.175
CTAGTAGC	0.0625
GCCCAGAA	-0.157
CCTTAGCG	0.0184
GCCTTGAC	-0.24
AAAAAGGT	-0.00405
AAGTAACA	-0.125

Sequence	PBM E-score
CCTGCTCA	-0.181
CCGCTGAA	-0.00985
ACTACGAG	0.335
AGCAATTA	-0.107
GGTGAACA	-0.272
AACTGAGG	0.0162
AATGACTG	-0.223
ACGCAATC	-0.0574
ACGTTCCA	0.214
AACTAGGT	0.0116
CCTGGACG	-0.201
AAATCTCT	-0.0179
GTAACTAC	0.0869
CGGAGGCA	-0.0509
CGACAGAC	0.0723
ATTCCGAC	-0.0388
AGGTACAA	-0.191
CGAAGCCA	0.087
AACCACAA	-0.0332
GCGCCTTA	-0.0457
GACCCCGC	0.00664
AGTGGACG	0.0993
